The other results are listed elsewhere or left out. Repeats are few or missing, and single values can be far off.
Legend:
Experiment in all cases: cell count relative to DMSO control; melanoma cells; higher = more viable cells
Conditions in all cases: library dose: standard library concentration; 72 h
A101D = tested on: A101D
A2058 = tested on: A2058
A375 = tested on: A375
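Note: cells treated in 1,536-well plates, then fixed and DAPI-stained, with nuclei counted from automated high-throughput microscope images.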

| SMILES | cell count (A101D) | cell count (A2058) | cell count (A375) |
| --- | --- | --- | --- |
| CC[C@]1(O)C[C@H]2CN(CCc3c([nH]c4ccccc34)[C@@](C(=O)OC)(c3cc4c(cc3OC)N(C=O)[C@H]3[C@@](O)(C(=O)OC)[C@H](OC(C)=O)[C@]5(CC)C=CCN6CC[C@]43[C@@H]65)C2)C1 [vincristine] + Cn1cncc1[C@@](N)(c1ccc(Cl)cc1)c1ccc2c(c1)c(-c1cccc(Cl)c1)cc(=O)n2C [tipifarnib] (first compound 0.0005 µM, partner dose 0.05 µM) | 35.4% | 5.24% | 77% |
| Cc1cc(Nc2cc(N3CCN(C)CC3)nc(Sc3ccc(NC(=O)C4CC4)cc3)n2)n[nH]1 [Tozasertib] + C#Cc1cccc(Nc2ncnc3cc(OCCOC)c(OCCOC)cc23)c1 [erlotinib] (first compound 0.03 µM, partner dose 4 µM) | 73.7% | 83.9% | 95.7% |
| Cc1cc(Nc2cc(N3CCN(C)CC3)nc(Sc3ccc(NC(=O)C4CC4)cc3)n2)n[nH]1 [Tozasertib] + Cn1nnc2c(C(N)=O)ncn2c1=O [temozolomide] (first compound 0.03 µM, partner dose 10 µM) | 82.4% | 48% | 97.2% |
| CC[C@]1(O)C[C@H]2CN(CCc3c([nH]c4ccccc34)[C@@](C(=O)OC)(c3cc4c(cc3OC)N(C=O)[C@H]3[C@@](O)(C(=O)OC)[C@H](OC(C)=O)[C@]5(CC)C=CCN6CC[C@]43[C@@H]65)C2)C1 [vincristine] + O=C(Nc1cccc(Cl)c1)Nc1ncc(CCNc2ncnc3ccsc23)s1 [SNS314] (first compound 0.0005 µM, partner dose 0.004 µM) | 45.9% | 12% | 87.1% |
| N#CC[C@H](C1CCCC1)n1cc(-c2ncnc3[nH]ccc23)cn1 [ruxolitinib] + O=C(O)c1ccc(-c2c[nH]c3ncc(-c4ccccc4)cc23)cc1C1CCCC1 [GSK650394] (first compound 5 µM, partner dose 0.8 µM) | 88.1% | 63.3% | 98.3% |
| N#CC[C@H](C1CCCC1)n1cc(-c2ncnc3[nH]ccc23)cn1 [ruxolitinib] + C#Cc1cccc(Nc2ncnc3cc(OCCOC)c(OCCOC)cc23)c1 [erlotinib] (first compound 5 µM, partner dose 4 µM) | 74.8% | 63.8% | 135% |
| CC[C@]1(O)C[C@H]2CN(CCc3c([nH]c4ccccc34)[C@@](C(=O)OC)(c3cc4c(cc3OC)N(C=O)[C@H]3[C@@](O)(C(=O)OC)[C@H](OC(C)=O)[C@]5(CC)C=CCN6CC[C@]43[C@@H]65)C2)C1 [vincristine] + CN(c1ncccc1CNc1nc(Nc2ccc3c(c2)CC(=O)N3)ncc1C(F)(F)F)S(C)(=O)=O [PF562271] (first compound 0.0005 µM, partner dose 0.4 µM) | 67.9% | 58.7% | 81.5% |
| N#CC[C@H](C1CCCC1)n1cc(-c2ncnc3[nH]ccc23)cn1 [ruxolitinib] + CN1CCN(c2ccc3nc(-c4c(N)c5c(F)cccc5[nH]c4=O)[nH]c3c2)CC1 [Dovitinib] (first compound 5 µM, partner dose 0.5 µM) | 78.1% | 42.2% | 104% |
| N#CC[C@H](C1CCCC1)n1cc(-c2ncnc3[nH]ccc23)cn1 [ruxolitinib] + O=C(O)[C@@H]1[O][Sb](=[O])([O][Sb]2(=[O])[O][C@H]([C@H](O)CO)[C@H](O)[C@H](C(=O)O)[O]2)[O][C@H]([C@H](O)CO)[C@@H]1O [stibogluconate] (first compound 5 µM, partner dose 10 µM) | 104% | 83.4% | 129% |
| CC[C@]1(O)C[C@H]2CN(CCc3c([nH]c4ccccc34)[C@@](C(=O)OC)(c3cc4c(cc3OC)N(C=O)[C@H]3[C@@](O)(C(=O)OC)[C@H](OC(C)=O)[C@]5(CC)C=CCN6CC[C@]43[C@@H]65)C2)C1 [vincristine] + NCC(=O)Nc1ccc(-n2nc(C(F)(F)F)cc2-c2ccc3c(ccc4ccccc43)c2)cc1 [OSU03012] (first compound 0.0005 µM, partner dose 5 µM) | 88.8% | 98.4% | 58.5% |
| Cc1cc(Nc2cc(N3CCN(C)CC3)nc(Sc3ccc(NC(=O)C4CC4)cc3)n2)n[nH]1 [Tozasertib] + Cn1cnc2c(F)c(Nc3ccc(Br)cc3Cl)c(C(=O)NOCCO)cc21 [selumetinib] (first compound 0.03 µM, partner dose 0.075 µM) | 64.1% | 79.1% | 90.7% |
| Cc1cc(Nc2cc(N3CCN(C)CC3)nc(Sc3ccc(NC(=O)C4CC4)cc3)n2)n[nH]1 [Tozasertib] + Cc1cc([N+](=O)[O-])ccc1NS(=O)(=O)c1cc(Cl)ccc1Cl [FH535] (first compound 0.03 µM, partner dose 5 µM) | 62.1% | 85.8% | 98.1% |
| Cc1cc(Nc2cc(N3CCN(C)CC3)nc(Sc3ccc(NC(=O)C4CC4)cc3)n2)n[nH]1 [Tozasertib] + O=C(/C=C/c1cccnc1)NCCCCC1CCN(C(=O)c2ccccc2)CC1 [FK866] (first compound 0.03 µM, partner dose 0.05 µM) | 75.3% | 87.7% | 69.8% |
| CC[C@]1(O)C[C@H]2CN(CCc3c([nH]c4ccccc34)[C@@](C(=O)OC)(c3cc4c(cc3OC)N(C=O)[C@H]3[C@@](O)(C(=O)OC)[C@H](OC(C)=O)[C@]5(CC)C=CCN6CC[C@]43[C@@H]65)C2)C1 [vincristine] + Nc1cccc2c1CN(C1CCC(=O)NC1=O)C2=O [lenalidomide] (first compound 0.0005 µM, partner dose 5 µM) | 59.2% | 54.7% | 99.6% |
| CC[C@]1(O)C[C@H]2CN(CCc3c([nH]c4ccccc34)[C@@](C(=O)OC)(c3cc4c(cc3OC)N(C=O)[C@H]3[C@@](O)(C(=O)OC)[C@H](OC(C)=O)[C@]5(CC)C=CCN6CC[C@]43[C@@H]65)C2)C1 [vincristine] + Cn1nnc2c(C(N)=O)ncn2c1=O [temozolomide] (first compound 0.0005 µM, partner dose 10 µM) | 63.4% | 50% | 87.7% |
| N#CC[C@H](C1CCCC1)n1cc(-c2ncnc3[nH]ccc23)cn1 [ruxolitinib] + Cn1sc(=O)n(Cc2ccccc2)c1=O [TDZD-8] (first compound 5 µM, partner dose 2 µM) | 124% | 91.9% | 124% |
| Cc1cc(Nc2cc(N3CCN(C)CC3)nc(Sc3ccc(NC(=O)C4CC4)cc3)n2)n[nH]1 [Tozasertib] + Cc1ccc(Nc2nccc(N(C)c3ccc4c(C)n(C)nc4c3)n2)cc1S(N)(=O)=O [Pazopanib] (first compound 0.03 µM, partner dose 2 µM) | 77% | 78.5% | 89% |
| N#CC[C@H](C1CCCC1)n1cc(-c2ncnc3[nH]ccc23)cn1 [ruxolitinib] + Cc1ccc(NC(=O)c2cccc(N(C)C)c2)cc1NC(=O)c1ccc(O)cc1 [ZM336372] (first compound 5 µM, partner dose 10 µM) | 109% | 88.4% | 140% |
| CC[C@]1(O)C[C@H]2CN(CCc3c([nH]c4ccccc34)[C@@](C(=O)OC)(c3cc4c(cc3OC)N(C=O)[C@H]3[C@@](O)(C(=O)OC)[C@H](OC(C)=O)[C@]5(CC)C=CCN6CC[C@]43[C@@H]65)C2)C1 [vincristine] + NC(=O)c1ccc(N(C(N)=O)c2c(F)cccc2F)nc1-c1ccc(F)cc1F [VX702] (first compound 0.0005 µM, partner dose 2 µM) | 76.8% | 72.2% | 86.3% |
| CC[C@]1(O)C[C@H]2CN(CCc3c([nH]c4ccccc34)[C@@](C(=O)OC)(c3cc4c(cc3OC)N(C=O)[C@H]3[C@@](O)(C(=O)OC)[C@H](OC(C)=O)[C@]5(CC)C=CCN6CC[C@]43[C@@H]65)C2)C1 [vincristine] + CO[C@@H]1[C@H](N(C)C(=O)c2ccccc2)C[C@H]2O[C@]1(C)n1c3ccccc3c3c4c(c5c6ccccc6n2c5c31)C(=O)NC4 [Midostaurin] (first compound 0.0005 µM, partner dose 0.4 µM) | 49.3% | 34% | 85.8% |
| N#CC[C@H](C1CCCC1)n1cc(-c2ncnc3[nH]ccc23)cn1 [ruxolitinib] + C[C@@H]1CCN(C(=O)CC#N)C[C@@H]1N(C)c1ncnc2[nH]ccc12 [CP690550] (first compound 5 µM, partner dose 5 µM) | 115% | 85.7% | 144% |
| N#CC[C@H](C1CCCC1)n1cc(-c2ncnc3[nH]ccc23)cn1 [ruxolitinib] + CCCCCCCCCCCCCCCCCCOP(=O)([O-])OC1CC[N+](C)(C)CC1 [Perifosine] (first compound 5 µM, partner dose 2 µM) | 142% | 53.2% | 114% |

— the supplement of paper PMC4604168 (melanoma cell lines)
